Data taken from publication PMC7806596, “Regulation of trehalase activity by multi-site phosphorylation and 14-3-3 interaction” (Scientific Reports, 2021).
Residue numbers refer to the chain shown, from its start. No constants are given. Whether binding was seen depends on the method and setting. In cells and extracts the contact can be indirect. Some entries that bind do so weakly or less than the wild type. Where a sequence is shown, tags or fusion partners need not be part of it.

Sequences of proteins named here, by UniProt entry; tags and fusion partners are left off.
UniProt P29311: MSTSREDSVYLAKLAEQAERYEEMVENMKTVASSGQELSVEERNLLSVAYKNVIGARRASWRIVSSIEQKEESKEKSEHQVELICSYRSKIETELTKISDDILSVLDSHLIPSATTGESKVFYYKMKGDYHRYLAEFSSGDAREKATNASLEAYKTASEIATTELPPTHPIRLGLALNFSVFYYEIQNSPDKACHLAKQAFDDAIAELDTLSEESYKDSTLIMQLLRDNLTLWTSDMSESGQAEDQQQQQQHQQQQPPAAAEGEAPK

What was measured:
[1] = target: T1, 3xFLAG-tagged Nth1 reporter (95 amino acids long N-terminal regulatory tail) (S. cerevisiae) (UniProt P32356); assay: co-IP; Nth1 reporter with Bmh1 (Supplementary Fig. S1d); conditions not given
T1 sequence: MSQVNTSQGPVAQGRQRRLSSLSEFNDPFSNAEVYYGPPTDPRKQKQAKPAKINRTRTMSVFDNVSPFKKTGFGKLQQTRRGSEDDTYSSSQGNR

[2] = target: T2, full-length 3xFLAG-tagged Nth1 (Nth1^WT) (S. cerevisiae) (UniProt P32356); assay: condition: only stationary phase, before glucose replenishment; co-IP; Nth1-3xFLAG precipitated with anti-FLAG M2 magnetic beads, Bmh1-V5 detected by blot; cells in stationary phase, before glucose addition
T2 sequence: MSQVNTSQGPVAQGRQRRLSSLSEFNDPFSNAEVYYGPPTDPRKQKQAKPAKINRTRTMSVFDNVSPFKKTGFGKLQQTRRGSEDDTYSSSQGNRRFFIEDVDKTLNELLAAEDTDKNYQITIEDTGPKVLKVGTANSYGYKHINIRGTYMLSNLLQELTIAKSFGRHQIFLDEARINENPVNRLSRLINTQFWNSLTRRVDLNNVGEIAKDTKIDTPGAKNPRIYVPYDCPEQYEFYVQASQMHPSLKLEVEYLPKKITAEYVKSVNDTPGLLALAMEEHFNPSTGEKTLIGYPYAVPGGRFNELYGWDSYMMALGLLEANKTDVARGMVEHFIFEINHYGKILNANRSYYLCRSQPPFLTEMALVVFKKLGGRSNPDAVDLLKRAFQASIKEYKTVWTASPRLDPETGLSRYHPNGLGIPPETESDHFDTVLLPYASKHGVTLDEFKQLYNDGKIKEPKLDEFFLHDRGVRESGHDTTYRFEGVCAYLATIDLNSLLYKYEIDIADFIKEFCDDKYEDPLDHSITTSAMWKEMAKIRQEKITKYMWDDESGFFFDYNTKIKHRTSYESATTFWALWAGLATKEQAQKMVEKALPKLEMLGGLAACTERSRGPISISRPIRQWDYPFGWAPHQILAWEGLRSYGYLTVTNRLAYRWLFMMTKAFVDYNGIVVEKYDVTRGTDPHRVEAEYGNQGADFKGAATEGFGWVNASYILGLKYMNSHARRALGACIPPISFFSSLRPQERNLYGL

[3] = target: T2, full-length 3xFLAG-tagged Nth1 (Nth1^WT) (S. cerevisiae); assay: co-IP; Nth1-3xFLAG precipitated with anti-FLAG M2 magnetic beads, Bmh1-V5 detected by blot; cells grown on 1% ethanol minimal medium, arrested in G1 and synchronously released; 25 mM Tris-HCl pH 7.5, 150 mM NaCl, 5 mM CaCl2, 0.1% Triton X-100, 4 °C, 1 h
[4] = target: T3, full-length 3xFLAG-tagged Nth1^S60A (S. cerevisiae) (UniProt P32356); assay: as above
T3 sequence: T2 sequence with S60A

[5] = target: T4, full-length 3xFLAG-tagged Nth1^S66A (S. cerevisiae) (UniProt P32356); assay: as above
T4 sequence: T2 sequence with S66A

[6] = target: T2, full-length 3xFLAG-tagged Nth1 (Nth1^WT) (S. cerevisiae); assay: co-IP; Nth1-3xFLAG precipitated with anti-FLAG M2 magnetic beads, Bmh1-V5 detected by blot; stationary phase cells recovered by dilution in 1% glucose minimal medium (5 min after glucose replenishment); 25 mM Tris-HCl pH 7.5, 150 mM NaCl, 5 mM CaCl2, 0.1% Triton X-100, 4 °C, 1 h
[7] = target: T5, full-length 3xFLAG-tagged Nth1^5A (S. cerevisiae) (UniProt P32356); assay: as above
T5 sequence: T2 sequence with S20A, S21A, S60A, S66A, S83A

Measured: binding

V5-tagged Bmh1 (from UniProt P29311 1-267)
no binding: [1] | [2] | [7]
binds: all other assays above
